Experimental data taken from the RNAGym collection of RNA variant scans (doi:10.1073/pnas.2313332121).
This sample is rich in variants without activity.

B1: TPR 5TU (parent)
chain: GGAUCUUCUCGAUCUAACAAAAAAGACAAAUCUGCCACAAAGCUUGAGAGCAUCUUCGGAUGCAGAGGCGGCAGCCUUCGGUGGCGCGAUAGCGCCAACGUUCUCAACUAUGACACGCAAAACGCGUGCUCCGUUGAAUGGAGUUUAUCAUG

Variants of: B1
Experiment: polymerase ribozyme fitness, log enrichment relative to wild type (log ratio); higher = more active; in vitro selection for triplet polymerase activity
In short: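 In triplicate, a single round of in vitro selection was run on each mutant library, PCR-built and transcribed, covering one subunit of a heterodimeric triplet polymerase ribozyme. Frozen incubation at −7 °C followed annealing with a biotinylated primer, partner subunit and triplets, and extended constructs were then gel-excised, streptavidin-captured and taken through RT-PCR. Fitness is the logarithm of genotype enrichment over wild-type enrichment, from inverse-variance-weighted replicate averages of Illumina-sequenced inputs and outputs. […] only genotypes with ≥10 input reads and ≥1 read per output were kept.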

Polymerase ribozyme fitness (log ratio), -2.51:
C14U G92C G136A

Polymerase ribozyme fitness (log ratio), ≤ -4.2:
C14U C36U G65C C96G G136A
C14U C38U G46U G58A U77G U82G A91G U111C A150U
C14U C38U U53A G70A C93U A107G U139C
C14U C43U U55G C87U C108A G133C
C14U C51G U53A C75U U130G
C14U C57G G92A G143A
C14U C72A G136A
C14U C87A G88U
C14U C93G A97G C118A U135C A142C U146G
C14U G25C A30U A49U C69G U109A
C14U G25C C38G G67A C69A C96U A121G A147C
C14U G25C C43G G48U U55G U56A G86U C87A A107U
C14U G25U U90G
C14U G34C U55G G65C A73G C99A C103A A119U G128A
C14U G42A C51A U55G C76G G92C C118A
C14U G42C A52C G84A C85A A115C
C14U G46A A47C C57A G65C G86U C96U
C14U G46C G50C C108G A113U A120U U127G U145G
C14U G48C C51U C75A C93G
C14U G48U A52U A138C A142C U148G
C14U G50A C57A C76G C93G
C14U G50A C72A U90A G117U
C14U G50A C79A C85A A97U G141U
C14U G50A U55A G94C U101A C105G G141C
C14U G50C A98U C108A
C14U G50C C96A A115G A150G
C14U G50U A91U C95G C99U A110G G117A
C14U G50U C87U U127G
C14U G71A C95U
C14U G74C A107G
C14U G92A C99U G141U
C14U G140A
C14U U15C A24C A29G U55G U56C C87A A115G G136U
C14U U44A A52C C85G
C14U U44A A64U G67A G68A G84U C93G G124A
C14U U45A A49G G88U C118U
C14U U53A U56G C69U C95A C108A
C14U U53G G84U C87G A98U U135G G140U
C14U U55G C75U G88A C118U G141C
C14U U56C U101G U109G A113C G133A C149G
C14U U61A G68A G126U A142C
U15A A16U A17G A91G C93A G140U
U15A A19C A26U A60G C93U C125U U144A
U15A A19G A30U U53G G68A A73G C85G U148G
U15A A19U C75A G83U G88U U144C
U15A A20U C54G G81A C114U C123G
U15A A21C U56A G68C U77A C96G U104G C108U G141C
U15A A21U C32A G68A C72A C85U G94U G124A
U15A A21U C35U A97G U151C
U15A A23U C87A C125G G141U
U15A A24C C27A U55A G86A
U15A A29G C85U U102G A106G A107G U127A G133U G140C
U15A A29U G59U C95U A120G U127G U135C G143A
U15A A30U C35U G59C G70A C87G G136A
U15A A30U U31A C54U U55G G88A G94U
U15A A40G G46A U55A C87U U104G
U15A C18G C27U U55A G86A C96G U104A A150G
U15A C35U G50C A73G G84U
U15A C36A A60C C103A A107U A115G C116U A142C
U15A C36U C63U C96G G100C
U15A C38U U55C A66U C87G A115C
U15A C43A U56A C87U C108G
U15A C43G C87A C116U A142U U151A
U15A G42C C93G A142C
U15A G42C G83A A107G C114G C118A G133A
U15A G46A A52C C54U G94U A107U U145A A150G G152U
U15A G50A U109G A110G
U15A G80A A91C A120G
U15A U31A G83U C103G U139A
U15A U31A U45C G92A A106C U144A
U15C A17C A26U C32G G68U C105U A110U
U15C A19U C43A G59A G84A A115U A120G G152U
U15C A21C A28C C54U A64U G68A G84A C87A G88U C132U U139C
U15C A21G C35U C72G G74U C75G G83C A89G
U15C A22U A47C G67U G81A G94U A142U U144A
U15C A23C U77G C85U
U15C A23G A24U C51U A52C G58C C95U C118G
U15C A23U G46C G86A C87A G88A G136A
U15C A24C C93U G128U G140A U144C
U15C A24G A39G G83A C99G
U15C A24U C36A C93G A138C
U15C A26G C35U A89C C99U U102C
U15C A28G U146C
U15C A28U C54G C99A
U15C A37U G46U G84U U148C
U15C A49C G80C C85A C96U
U15C A49G C76U A91U
U15C A64U C87A A97U
U15C A91U U104G C105U
U15C C18U A19C A20U G67C C85U G136A G140U
U15C C18U A23C U45A C54G G81A G84A C95A A97C A110U
U15C C18U U33A A52U G86U G92C
U15C C27U C85U U127A G141U
U15C C51A U55A G92U C93G A138U C149A
U15C C85U U102G U130C G133A
U15C G25A C35G G83A U127G
U15C G25U C54U A121U G136U
U15C G48A A49U A52G C54U C87G U90A C96U C99U U148G
U15C G48C A49U A52G A60C C85A G141C G143A U148C
U15C G50C G86U U102G C125A U135A
U15C U44A A52G C72G C85G G88C
U15C U45A C87U C132G U139C G143A U145G
U15C U53A A66U C72U G81A A97G
U15C U53G C99G A107G A142U
U15G A16C A17C A40C C93U C99G G100A A110C A138U
U15G A16U C27A U53G U55G A73G C95G
U15G A17C A20C A28U A47G C57A A89U A91G U101G
U15G A17G A23C G25C U31C G46U U61A C99G C108A C125G
U15G A19C A22U A30G C51U A52C C75G G83A C108G
U15G A19G C54U G62A C87U U139C
U15G A19U U53G A66G C79U G124A
U15G A20U U31G A49C A52C C75G U77A A98G U130A
U15G A22U A41U G84U G88C C96G C114U C123U
U15G A22U G42U C85A A150C
U15G A22U G58U G71U C72U A91G
U15G A23C G25U A39C U45A C57U G92U A115C G141U
U15G A23G G50C C51G C63G C96G
U15G A23U G48U G84U C95U
U15G A24C G59C G68C C79G G81U C95A C132U
U15G A26C A28C C43U G59A C87G
U15G A28C U44A C57A G58A A91U U102A U134A U145A
U15G A28U C38U A119G G124U
U15G A29G U31C A39U C51A G58C U139A
U15G A29U C75G C87G G88U C105G G112A U144G
U15G A29U C95A A147G
U15G A30G C54A
U15G A37C C38G A49C G59C C85G G94A C108U A138C
U15G A40G A41U G42A C93A U102G
U15G A41C A107C C108U
U15G A49C A66G C85A C103U G140U
U15G A66C G92U
U15G A73C G84U C96A C103G A110G A137C
U15G A73C G92U C125U
U15G A91G C132A U139A
U15G A107C G124A
U15G C18A G80C C116U U144C
U15G C18G A40U C76G C118G U139C
U15G C18G C85A C87A A106C A142G
U15G C18U G50C U82G C87A
U15G C27G C76U C87G
U15G C27G G88A G100U U109C G141C
U15G C27U U44A A113C

Polymerase ribozyme fitness (log ratio), -0.722:
U15G A22G U56G C96U A121U

Polymerase ribozyme fitness (log ratio), 1.65:
U15C A21U

Polymerase ribozyme fitness (log ratio), -3.98:
U15C C54A C87U G94A A98U C125A

Polymerase ribozyme fitness (log ratio), 0.983:
U15C A21G A24U U53A

Polymerase ribozyme fitness (log ratio), -3.85:
C14U G94A G136U

Polymerase ribozyme fitness (log ratio), -1.23:
C14U G59U

Polymerase ribozyme fitness (log ratio), -1.16:
U15A C38U C54U C95G G141A

Polymerase ribozyme fitness (log ratio), -2.46:
C14U U53A U56A

Polymerase ribozyme fitness (log ratio), -0.657:
U15C U56G A113U

Polymerase ribozyme fitness (log ratio), -4.13:
U15G A21C G83U A89G C96G U127A

Polymerase ribozyme fitness (log ratio), 0.0902:
C14U G141U

Polymerase ribozyme fitness (log ratio), -4.1:
U15C G74C G94C

Polymerase ribozyme fitness (log ratio), 0.845:
U15A U55A G59A

Polymerase ribozyme fitness (log ratio), -2.54:
C14U C87U C99U G124A C125U

Polymerase ribozyme fitness (log ratio), -0.149:
U15C G84A A106G G124A

Polymerase ribozyme fitness (log ratio), -4.2:
C14U G88A

Polymerase ribozyme fitness (log ratio), -4.04:
U15G C35U A41C A115G U145G

Polymerase ribozyme fitness (log ratio), 0.506:
U15C U145G

Polymerase ribozyme fitness (log ratio), -1.77:
U15C A20U C54U G86U

Polymerase ribozyme fitness (log ratio), -1.17:
U15C A22C C51U G81U C85U G94A A122G

Polymerase ribozyme fitness (log ratio), -2.56:
C14U U15A C93U U101A

Polymerase ribozyme fitness (log ratio), -1.56:
C14U G84A

Polymerase ribozyme fitness (log ratio), -0.331:
U15C C93U

Polymerase ribozyme fitness (log ratio), -0.19:
U15A G83U
